Results: article PMC4336329 (PLoS ONE, 2015)
Among all 310,000 compounds or so, about 2,200 (0.71%) showed an effect of 50% or more. Effects have a minus sign here. The list shows a part of the results.

Each compound was assayed against human ether-à-go-go-related gene (hERG) potassium channel (human, UniProt Q12809) (assay: primary screen, population patch clamp on CHO cells stably expressing hERG).
Chain of human ether-à-go-go-related gene (hERG) potassium channel (Q12809 whole entry, looked up): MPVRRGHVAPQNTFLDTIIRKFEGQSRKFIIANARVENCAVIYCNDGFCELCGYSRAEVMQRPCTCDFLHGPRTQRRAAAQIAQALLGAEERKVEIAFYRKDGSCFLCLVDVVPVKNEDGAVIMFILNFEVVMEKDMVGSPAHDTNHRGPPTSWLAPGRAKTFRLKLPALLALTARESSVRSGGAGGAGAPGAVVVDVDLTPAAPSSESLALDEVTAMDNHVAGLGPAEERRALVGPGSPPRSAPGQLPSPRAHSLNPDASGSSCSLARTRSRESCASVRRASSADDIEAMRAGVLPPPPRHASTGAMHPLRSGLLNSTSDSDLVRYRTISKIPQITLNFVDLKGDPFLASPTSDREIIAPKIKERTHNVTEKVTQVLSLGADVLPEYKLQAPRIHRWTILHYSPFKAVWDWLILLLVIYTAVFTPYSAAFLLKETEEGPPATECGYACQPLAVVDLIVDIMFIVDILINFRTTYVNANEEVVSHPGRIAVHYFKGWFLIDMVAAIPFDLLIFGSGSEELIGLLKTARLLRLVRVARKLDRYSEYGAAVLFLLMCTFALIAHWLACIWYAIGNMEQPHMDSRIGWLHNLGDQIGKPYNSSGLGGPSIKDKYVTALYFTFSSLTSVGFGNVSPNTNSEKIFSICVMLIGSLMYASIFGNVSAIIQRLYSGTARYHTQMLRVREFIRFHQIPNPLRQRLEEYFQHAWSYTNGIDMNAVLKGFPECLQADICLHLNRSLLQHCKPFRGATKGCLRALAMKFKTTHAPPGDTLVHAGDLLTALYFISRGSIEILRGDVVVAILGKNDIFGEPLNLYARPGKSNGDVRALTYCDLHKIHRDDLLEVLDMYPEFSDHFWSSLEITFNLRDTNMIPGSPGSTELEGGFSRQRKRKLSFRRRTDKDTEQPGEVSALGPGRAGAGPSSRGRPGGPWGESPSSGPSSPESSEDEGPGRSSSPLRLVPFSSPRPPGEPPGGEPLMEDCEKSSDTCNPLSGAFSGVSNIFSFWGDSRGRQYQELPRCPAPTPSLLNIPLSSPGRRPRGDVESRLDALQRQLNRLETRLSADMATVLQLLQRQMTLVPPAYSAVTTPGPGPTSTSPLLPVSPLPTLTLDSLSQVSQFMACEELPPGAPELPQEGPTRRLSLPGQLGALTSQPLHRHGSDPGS
With C=CCC1(CC=C)CCCN1C(=O)c1cc(COc2ccccc2SC)on1 the “hERG current change (%, negative = inhibition) at 1uM” value was 6.72%.
In the case of CCOC(=O)/C(C#N)=C\c1c(C)cc(C)c(COC(C)=O)c1C, the “hERG current change (%, negative = inhibition) at 1uM” value is reported as 15.6%.
With CC(Sc1nncs1)C(=O)Nc1ccc(Cl)cn1 (stereo not drawn) the “hERG current change (%, negative = inhibition) at 1uM” value was 1.34%.
O=S(=O)(c1ccc2c(c1)CCCN2)N1CCCCC1 was tested, and the “hERG current change (%, negative = inhibition) at 1uM” value was -2.78%.
For COCC(=O)Nc1cc(C(=O)Nc2ccccc2)ccc1Cl, the “hERG current change (%, negative = inhibition) at 1uM” value was 6.99%.
With COC(=O)C(CCSC)NC(=O)C(NC(=O)C1CCC(C)CC1)C(C)C (stereo not drawn) the “hERG current change (%, negative = inhibition) at 1uM” value was 9.53%.
c1ccc2c3n(nc2c1)CCCCO3 was tested, and the “hERG current change (%, negative = inhibition) at 1uM” value was 2.92%.
For CN(Cc1ccc(C(C)(C)C)cc1)C(=O)c1ccc2c(=O)n3c(nc2c1)CCC3, the “hERG current change (%, negative = inhibition) at 1uM” value was -5.45%.
In the case of CC1CN(S(=O)(=O)c2cccc(C(=O)OCC(=O)Nc3ccc4c(c3)OCO4)c2)CC(C)O1 (stereo not drawn), the “hERG current change (%, negative = inhibition) at 1uM” value is reported as 6.67%.
With CC(OC(=O)Cc1n[nH]c(=O)c2ccccc12)C(=O)Nc1ccc(F)cc1Cl (stereo not drawn) the “hERG current change (%, negative = inhibition) at 1uM” value was 5.43%.
COc1c(Cl)cc(-c2noc(C)c2C(=O)NCCc2ccc(C)cc2)cc1Cl was tested, and the “hERG current change (%, negative = inhibition) at 1uM” value was 4.34%.
For Cc1nnc(SCc2nnc(-c3cccs3)o2)s1, the “hERG current change (%, negative = inhibition) at 1uM” value was 5.06%.
With Cc1ccc2c(CSc3nnc4ccccn34)cc(=O)oc2c1C the “hERG current change (%, negative = inhibition) at 1uM” value was -3.5%.
In the case of COc1ccc(C2Nc3ccccc3C(=O)N2c2ccc(C)cc2)cc1Cn1nc(C)c([N+](=O)[O-])c1C (stereo not drawn), the “hERG current change (%, negative = inhibition) at 1uM” value is reported as 14%.
For COC(C(=O)Nc1ccnn1C1CCN(Cc2cnn(C)c2)CC1)c1ccccc1 (stereo not drawn), the “hERG current change (%, negative = inhibition) at 1uM” value was 15.1%.
In the case of COC(=O)Cc1c(C)c2ccc(OC3CCCCC3=O)cc2oc1=O (stereo not drawn), the “hERG current change (%, negative = inhibition) at 1uM” value is reported as 11.5%.
In the case of CCCc1nc(SCc2ccccc2Cl)n[nH]1, the “hERG current change (%, negative = inhibition) at 1uM” value is reported as 14.2%.
In the case of Cc1cc(C)nc(SC(C(=O)O)c2ccccc2)n1 (stereo not drawn), the “hERG current change (%, negative = inhibition) at 1uM” value is reported as 11.3%.
For CCOC(=O)Cn1cc(C#N)c2ccccc21, the “hERG current change (%, negative = inhibition) at 1uM” value was 12.7%.
For NC(=O)[C@H]1CC2(CC(c3cccc(NC(=O)CC(c4ccccc4)c4ccccc4)c3)=NO2)CN1C(=O)c1ccccc1C(=O)c1ccccc1 (stereo partly drawn), the “hERG current change (%, negative = inhibition) at 1uM” value was 7.67%.
For COC(=O)c1ccc(C23CC4(C2)[C@H](CN(Cc2ccc(-c5ccccc5)cc2)[C@@H]4c2ccccc2)C3c2ccc(C(F)(F)F)cc2)cc1 (stereo partly drawn), the “hERG current change (%, negative = inhibition) at 1uM” value was -2.35%.
For COc1ccc(-c2csc(C)n2)cc1, the “hERG current change (%, negative = inhibition) at 1uM” value was 1.64%.
For Cc1cccnc1NC(=O)c1ccc2c(c1)OCO2, the “hERG current change (%, negative = inhibition) at 1uM” value was 1.76%.
In the case of Cn1c(=O)[nH]c(Nc2ccccc2)c([N+](=O)[O-])c1=O, the “hERG current change (%, negative = inhibition) at 1uM” value is reported as 12.8%.
For COc1ccc(-c2nnc(C)c3nocc23)cc1, the “hERG current change (%, negative = inhibition) at 1uM” value was 9.85%.
In the case of Cc1cccn2c(=O)c3cc(C(=O)NC4CCCC4)c(=N)n(CC4CCCO4)c3nc12 (stereo not drawn), the “hERG current change (%, negative = inhibition) at 1uM” value is reported as -80.2%.
For O=C(NCc1ccco1)C1CCN(c2ccc(N3CCOCC3)nn2)CC1, the “hERG current change (%, negative = inhibition) at 1uM” value was 7.3%.
With Cc1cccc(NS(=O)(=O)c2cnc(Cl)c(Br)c2)n1 the “hERG current change (%, negative = inhibition) at 1uM” value was -1.1%.
For COc1ccc(Cc2nc3ccc(C(=O)N(C)Cc4cc(C)[nH]n4)cc3o2)cc1OC, the “hERG current change (%, negative = inhibition) at 1uM” value was 18%.
CCCOc1ccccc1/C=C(\C#N)C(=O)Nc1cccnc1 was tested, and the “hERG current change (%, negative = inhibition) at 1uM” value was -0.538%.
For CCOC1C(=O)NC(=O)N1Cc1ccccc1 (stereo not drawn), the “hERG current change (%, negative = inhibition) at 1uM” value was 10.3%.
C#CCC(NC(=O)c1ccc(C#N)cc1)C(=O)NCCC (stereo not drawn) was tested, and the “hERG current change (%, negative = inhibition) at 1uM” value was 16.4%.
For CC(C)c1nnc(SCC(=O)Nc2ccc3c(c2)OCO3)n1C, the “hERG current change (%, negative = inhibition) at 1uM” value was 9.15%.
For O=S(=O)(c1ccc2c(c1)CCN2)N1CCOCC1, the “hERG current change (%, negative = inhibition) at 1uM” value was 7.59%.
In the case of Cc1nc(-c2ccc(Cl)cc2)sc1C1(C)CC(c2ccccc2F)=NO1 (stereo not drawn), the “hERG current change (%, negative = inhibition) at 1uM” value is reported as 9.8%.
CN(C)c1ccc(C(=O)/C=C/c2cccnc2)cc1 was tested, and the “hERG current change (%, negative = inhibition) at 1uM” value was 18%.
In the case of O=C(CC1C(=O)NCCN1Cc1ccccc1C(F)(F)F)NCCN1CCOCC1 (stereo not drawn), the “hERG current change (%, negative = inhibition) at 1uM” value is reported as 9.33%.
Cc1ccc(C)n1NC(=O)c1ccccc1 was tested, and the “hERG current change (%, negative = inhibition) at 1uM” value was 21%.
With O=C(CN1CCN(Cc2ccc(F)cc2)CC1)NCc1ccccc1 the “hERG current change (%, negative = inhibition) at 1uM” value was 0.469%.
CN(C)S(=O)(=O)c1ccc2c(c1)c(=O)c(C(=O)NCCCN1CCCCCC1)cn2C was tested, and the “hERG current change (%, negative = inhibition) at 1uM” value was 7.93%.
With COc1ccc(CCNC(=O)c2ccc([N+](=O)[O-])cc2)cc1 the “hERG current change (%, negative = inhibition) at 1uM” value was 3.21%.
For CC(=C/c1ccccc1)/C=N/n1c(-c2ccncc2)n[nH]c1=S, the “hERG current change (%, negative = inhibition) at 1uM” value was 14.3%.
For CCc1cccc(CC)c1-n1c(SCC(=O)N2CCc3ccccc3C2)nnc1-c1cccnc1, the “hERG current change (%, negative = inhibition) at 1uM” value was 9.39%.
In the case of CCN(CC)CCCn1c2c(c(SCC(=O)N3CCc4ccccc43)nc1=O)CCC2, the “hERG current change (%, negative = inhibition) at 1uM” value is reported as -17.5%.
With CCCCNC(=O)CC1NCCNC1=O (stereo not drawn) the “hERG current change (%, negative = inhibition) at 1uM” value was 15.8%.
